Data on 40 sequences can be found in the supplement of paper PMC7826260.

This is one part of the list. One pool of 16,384 single-stranded DNAs met each Rep nickase domain in vitro for 1 h at 37 °C with 3 µM enzyme; only the middle of the 90-letter strands is printed. A value is the log2 ratio of uncut reads to the pool without enzyme; uncut sequences lie near 0, cut ones below; no hit call is given. Counts are relative to all reads; uncut strands gain when others are lost, and binding without cutting may add a little.

The test deals with T1, Rep nickase domain of banana bunchy top virus.
T1 sequence (residues 1-94 of Rep, tag left off): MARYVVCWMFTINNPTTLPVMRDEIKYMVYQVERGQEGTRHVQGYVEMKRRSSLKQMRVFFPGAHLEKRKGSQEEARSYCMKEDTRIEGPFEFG
Kind of test: uncleaved DNA left, log2 of reads against the no-enzyme library (log2 ratio); higher = less cleavage (more negative = more Rep cleavage of the k-mer); sequences stand for … in CTCGTCCG…ACCGGAGA
The procedure:
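A pool of 90-nt single-stranded DNAs with seven random bases just before the constant AC of the nick site (name = the seven bases) was cut by 3 µM recombinant His6-SUMO-tagged Rep nickase domain (300 nM DNA, 50 mM HEPES pH 8.0, 50 mM NaCl, 1 mM MnCl2, 1 h, 37 °C, three replicates). Uncut DNA was amplified and sequenced.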
For the sequence AGATTCT, the “uncleaved DNA left (log2)” value was 0.0263.
Take TCTCCAG: the “uncleaved DNA left (log2)” value was -0.193.
Consider TGTGGCT, for which the “uncleaved DNA left (log2)” value is -0.0507.
Take CGTGCTA: the “uncleaved DNA left (log2)” value was determined as 0.106.
The figure for TACTCAA is 0.147.
The figure for CCGATCC is 0.00906; for CTTTACG it is -0.0639; for GCAATGC it is -0.0656.
Consider TCCCATT, for which the “uncleaved DNA left (log2)” value came out at 0.0288.
With CTTGGAA, the “uncleaved DNA left (log2)” value was 0.196.
The figure for GAGACTT is 0.0227.
In the case of GCGGTTC, the “uncleaved DNA left (log2)” value was -0.0432.
With CTATCCT, the “uncleaved DNA left (log2)” value was determined as 0.0405.
With TACATTA, the “uncleaved DNA left (log2)” value was determined as 0.0376.
As to GTTCCTA, the “uncleaved DNA left (log2)” value came out at 0.113.
The figure for CAGCAGT is -0.0425; for GCAAGCG it is -0.0163.
In the case of AATCCAC, the “uncleaved DNA left (log2)” value was -0.0963.
Regarding TTTAACA, the “uncleaved DNA left (log2)” value amounted to 0.0946.
For CATCATG, the “uncleaved DNA left (log2)” value was 0.0297.
On to AAAGGGC, for which the “uncleaved DNA left (log2)” value was 0.0633.
Regarding CCGTCTT, the “uncleaved DNA left (log2)” value was -0.473.
With GCTCCCT, the “uncleaved DNA left (log2)” value came to 0.11.
Consider GGTTTAG, for which the “uncleaved DNA left (log2)” value is -0.0403.
As for CCGTCTA, the “uncleaved DNA left (log2)” value is -0.0522.
With TGAACCG, the “uncleaved DNA left (log2)” value is -0.0324.
The figure for TGCTATA is -0.0403; for CTCCGCG it is 0.0304.
GCGTAGA: the “uncleaved DNA left (log2)” value is 0.0349.
TCTAGAG: the “uncleaved DNA left (log2)” value is -0.116.
As to CAAAGAC, the “uncleaved DNA left (log2)” value came to 0.00414.
Next, TCGGTAA: -0.0728.
As to TTTGGGC, the “uncleaved DNA left (log2)” value was -0.0752.
Regarding GTGGGCG, the “uncleaved DNA left (log2)” value is -0.0241.
GTCTGCA: the “uncleaved DNA left (log2)” value is -0.0477.
In the case of TTTGCCA, the “uncleaved DNA left (log2)” value came to 0.0526.
For the sequence ACGACCG, the “uncleaved DNA left (log2)” value amounted to 0.00628.
Turning to GTATCGC, the “uncleaved DNA left (log2)” value is -0.0919.
On to ATTCCTT, for which the “uncleaved DNA left (log2)” value is -0.407.
For GCTAACC, the “uncleaved DNA left (log2)” value was -0.0703.
